# Test results taken from PubChem BioAssay (NCATS).
# Values joined by “and” are separate entries in the source; they are usually repeats but may differ in a detail not shown here. Identical values can stand only once. The shares of active, inactive and inconclusive entries below differ from those in the screen. Potencies beside an inconclusive call are fits to weak or partial responses and may not hold up. Active and inactive are the calls of the source. Calls follow the shape of the dose curve; as a rule, active = well fitted curve in the direction sought with a large enough effect; inconclusive = small, poorly fitted or top-dose-only effect, or another doubt; inactive = no such curve, though single readings can be large; an effect the other way counts as inactive or inconclusive.
# Test: P-glycoprotein substrates identified in KB-8-5-11 adenocarcinoma cell line, qHTS therapeutic library screen (AID 1346987); also: nearly all actives have a fitted effect of over 65% in size; as to activity change, negative = cytotoxicity: % is scaled to controls: 0 for no effect and ±100 for the full control effect
# Details: KB-8-5-11 (P-gp overexpressing) viability, CellTiter-Glo, 72 h; series mostly up to 44.5 µM; activity change, negative = cytotoxicity: at the top concentration
# How it was run: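 In this qHTS, P-gp-rich KB-8-5-11 cells received library compounds across a concentration range. Viability was quantified by luminescence after 72 h at 37 degree C.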
# Potency is read from the fitted curve at half-maximal effect; tags tell the direction and shape of the fitted curve.
SMILES,Potency,"activity change, negative = cytotoxicity"
CCN(CC)CCCCNc1ncc2c(n1)N(C)C(=O)N(c1c(Cl)c(OC)cc(OC)c1Cl)C2,"inconclusive: 2.64 µM [inhibitor, partial curve, poor fit]",
COc1ccc(Cc2cnc(N)nc2N)cc1OC,,inactive: -3.94%
C/C1=C\CCC2=CC(OC2=O)C(C)(C)/C=C/C1=O (stereo unspecified),"inconclusive: 29.1 µM [inhibitor, single point]",
COc1cc2nc(N3CCN(C)CC3)nc(NC3CCN(Cc4ccccc4)CC3)c2cc1OC,active: 16.4 µM,
CCN(CC)CCOc1ccc2c(c1)C(=O)c1cc(OCCN(CC)CC)ccc1-2,"inconclusive: 23.1 µM [inhibitor, single point]",
CN1CCc2cccc3c2[C@H]1Cc1ccc(O)c(O)c1-3,"inconclusive: 25.9 µM [inhibitor, single point]",
Cc1ccc(Nc2c(F)cccc2Cl)c(CC(=O)O)c1,inactive,
N#CC(c1ccnc(OCc2ccc(CN3CCOCC3)cc2)n1)c1nc2ccccc2s1 (stereo unspecified),"inconclusive: 7.31 µM [inhibitor, partial curve, poor fit]",
Cc1nc2c(C(F)(F)F)cccc2nc1-c1ccc(-c2cccc(S(C)(=O)=O)c2)cc1,,inactive: -20.1%
C=C1C(=O)O[C@@H]2C[C@H](C)[C@@H]3CC(=O)C(C)=C3C[C@H]12,"inconclusive: 18.4 µM [inhibitor, single point]",
Cc1c(NC(=O)OCC2COCCN2)cn2ncnc(Nc3ccc4c(cnn4Cc4cccc(F)c4)c3)c12 (stereo unspecified),"inconclusive: 20.6 µM [inhibitor, partial curve, poor fit]",
CN1CCN(c2ccc(C(=O)Nc3n[nH]c4ccc(Cc5cc(F)cc(F)c5)cc34)c(NC3CCOCC3)c2)CC1,active: 16.4 µM and active: 13 µM,

# Test: qHTS of pediatric cancer cell lines to identify multiple opportunities for drug repurposing: Primary screen for TC32 cells (AID 1347089); also: nearly all actives have a fitted effect of over 60% in size; as to activity change, negative = cytotoxic: % is scaled to controls: 0 for no effect and ±100 for the full control effect
# Details: TC32 Ewing sarcoma viability, CellTiter-Glo luminescence, 48 h; series mostly up to 45.8 µM; activity change, negative = cytotoxic: at the top concentration
# How it was run: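 TC32 cells, 500-1,000/well in growth medium, compound-treated 48 h at 37 °C; viability from CellTiter-Glo luminescence. Primary screen: MIPE 11-point (0.78 nM–46 µM final), NPC 8-point (0.59 nM–46 µM final); confirmatory at 11-point dilutions.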
SMILES,"activity change, negative = cytotoxic",Potency
C(=C\c1ccccc1)/CN1CCN(C(c2ccccc2)c2ccccc2)CC1,inactive: 0.533%,
CCN(CC)CCOc1ccc2c(c1)C(=O)c1cc(OCCN(CC)CC)ccc1-2,,"inconclusive: 18.7 µM [cytotoxic, single point]"
CN1CCc2cccc3c2[C@H]1Cc1ccc(O)c(O)c1-3,,"inconclusive: 23.6 µM [cytotoxic, single point]"

# Test: qHTS of pediatric cancer cell lines to identify multiple opportunities for drug repurposing: Primary screen for DAOY cells (AID 1347090); also: nearly all actives have a fitted effect of over 55% in size;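 as to activity change, negative = cytotoxic: plate controls were DMSO for no effect and bortezomib for full effect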
# Details: DAOY medulloblastoma viability, CellTiter-Glo luminescence, 48 h; activity change, negative = cytotoxic: at 46 µM (top of the series)
# How it was run: (§1)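 Eight- or eleven-point concentration series, 48 h treatment at 37 degrees C in growth media; readout CellTiter-Glo luminescence. Potency and efficacy were taken from the concentration-response curves.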
SMILES,Potency,"activity change, negative = cytotoxic"
C[C@@H](O[C@H]1OCCN(Cc2n[nH]c(=O)[nH]2)[C@H]1c1ccc(F)cc1)c1cc(C(F)(F)F)cc(C(F)(F)F)c1,"inconclusive: 16.8 µM [cytotoxic, single point]",
C(=C\c1ccccc1)/CN1CCN(C(c2ccccc2)c2ccccc2)CC1,"inconclusive: 26.6 µM [cytotoxic, single point]",
CCN(CC)CCCCNc1ncc2c(n1)N(C)C(=O)N(c1c(Cl)c(OC)cc(OC)c1Cl)C2,"inconclusive: 18.7 µM [cytotoxic, partial curve, poor fit]",
COc1ccc(Cc2cnc(N)nc2N)cc1OC,,inactive: 4.53%
CN1CCc2cccc3c2[C@H]1Cc1ccc(O)c(O)c1-3,"inconclusive: 21.1 µM [cytotoxic, single point]",

# Test: qHTS of pediatric cancer cell lines to identify multiple opportunities for drug repurposing: Primary screen for SJ-GBM2 cells (AID 1347091)
# Details: SJ-GBM2 viability, CellTiter-Glo luminescence, 48 h; series mostly up to 46 µM; activity change, negative = cytotoxic: at the top concentration
# How it was run: as §1
row,SMILES,Potency
1,C(=C\c1ccccc1)/CN1CCN(C(c2ccccc2)c2ccccc2)CC1,"inconclusive: 26.6 µM [cytotoxic, partial curve, poor fit]"
2,CCN(CC)CCOc1ccc2c(c1)C(=O)c1cc(OCCN(CC)CC)ccc1-2,"inconclusive: 33.5 µM [cytotoxic, partial curve, poor fit]"
3,CN1CCc2cccc3c2[C@H]1Cc1ccc(O)c(O)c1-3,"inconclusive: 33.5 µM [cytotoxic, single point]"

# Test: qHTS of pediatric cancer cell lines to identify multiple opportunities for drug repurposing: Primary screen for A673 cells (AID 1347092); also: nearly all actives have a fitted effect of over 45% in size
# Details: A673 Ewing sarcoma viability, CellTiter-Glo ATP luminescence, 48 h; activity change, negative = cytotoxic: at 46 µM (top of the series)
# How it was run: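 A673 cells (500-1,000 cells/well) were treated 48 hours at 37 degrees C with compounds at 11-point (0.78 nM to 46 µM) or 8-point (0.59 nM to 46 µM) dilutions. Viability read by CellTiter-Glo luminescence; concentration-response curves fitted.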
row,SMILES,Potency
1,C(=C\c1ccccc1)/CN1CCN(C(c2ccccc2)c2ccccc2)CC1,"inconclusive: 26.6 µM [cytotoxic, single point]"
2,CCN(CC)CCOc1ccc2c(c1)C(=O)c1cc(OCCN(CC)CC)ccc1-2,"inconclusive: 33.5 µM [cytotoxic, single point]"
3,CN1CCc2cccc3c2[C@H]1Cc1ccc(O)c(O)c1-3,"inconclusive: 33.5 µM [cytotoxic, single point]"

# Test: qHTS of pediatric cancer cell lines to identify multiple opportunities for drug repurposing: Primary screen for SK-N-MC cells (AID 1347093)
# Details: SK-N-MC viability, CellTiter-Glo luminescence, 48 h; activity change, negative = cytotoxic: at 46 µM (top of the series)
# How it was run: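 Metabolically active cells were quantified by ATP-dependent luminescence (CellTiter-Glo, 15 min at room temperature) following 48 h treatment. Cells had been plated at 500-1,000 per well and settled for 5 h beforehand.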
row,SMILES,Potency
1,C[C@@H](O[C@H]1OCCN(Cc2n[nH]c(=O)[nH]2)[C@H]1c1ccc(F)cc1)c1cc(C(F)(F)F)cc(C(F)(F)F)c1,"inconclusive: 33.5 µM [cytotoxic, single point]"
2,C(=C\c1ccccc1)/CN1CCN(C(c2ccccc2)c2ccccc2)CC1,"inconclusive: 23.7 µM [cytotoxic, single point]"
3,COc1ccc(Cc2cnc(N)nc2N)cc1OC,active: 7.5 µM
4,CCN(CC)CCOc1ccc2c(c1)C(=O)c1cc(OCCN(CC)CC)ccc1-2,"inconclusive: 26.6 µM [cytotoxic, single point]"
5,CN1CCc2cccc3c2[C@H]1Cc1ccc(O)c(O)c1-3,"inconclusive: 21.1 µM [cytotoxic, single point]"
